These are yes or no findings as the source states them, for the method shown. Binding seen in cells or lysates may run through a third protein. Some entries that bind do so weakly or less than the wild type. For part of these data: Tags and fused reporters may be left off the sequences shown.
Columns and labels:
[1] = target: gravin-α, full-length (WT), epitope-tagged (rat) (UniProt Q5QD51); assay: co-IP; transfected HEK293 cells; Myc-tagged HDAC11 with full-length, truncated or QQ/AA gravin-α
[2] = target: gravin-α, full-length (WT), epitope-tagged (rat) (UniProt Q5QD51); assay: co-IP; HEK293 cells transfected with epitope-tagged gravin-α and HDAC11, treated with Gravi-D, scrambled peptide or Gravi-D (QQ/AA)
[3] = target: FLAG-tagged gravin-α (K1502/1505R), myristoylation-deficient (rat) (UniProt Q5QD51); assay: co-IP; 3T3-L1 adipocytes infected with lentiviruses encoding FLAG-tagged gravin-α (WT or K1502/1505R), treated with scrambled peptide, Gravi-D or FT895
[4] = target: FLAG-tagged wild-type (WT) gravin-α (rat) (UniProt Q5QD51); assay: as above

Sequences of proteins named here, by UniProt entry; tags and fusion partners are left off. A change or cut given only in a name is not applied to a line headed by its entry. A line that says so, or that is headed by a name, gives the form on record, which may keep a tag or linker.
UniProt Q5QD51: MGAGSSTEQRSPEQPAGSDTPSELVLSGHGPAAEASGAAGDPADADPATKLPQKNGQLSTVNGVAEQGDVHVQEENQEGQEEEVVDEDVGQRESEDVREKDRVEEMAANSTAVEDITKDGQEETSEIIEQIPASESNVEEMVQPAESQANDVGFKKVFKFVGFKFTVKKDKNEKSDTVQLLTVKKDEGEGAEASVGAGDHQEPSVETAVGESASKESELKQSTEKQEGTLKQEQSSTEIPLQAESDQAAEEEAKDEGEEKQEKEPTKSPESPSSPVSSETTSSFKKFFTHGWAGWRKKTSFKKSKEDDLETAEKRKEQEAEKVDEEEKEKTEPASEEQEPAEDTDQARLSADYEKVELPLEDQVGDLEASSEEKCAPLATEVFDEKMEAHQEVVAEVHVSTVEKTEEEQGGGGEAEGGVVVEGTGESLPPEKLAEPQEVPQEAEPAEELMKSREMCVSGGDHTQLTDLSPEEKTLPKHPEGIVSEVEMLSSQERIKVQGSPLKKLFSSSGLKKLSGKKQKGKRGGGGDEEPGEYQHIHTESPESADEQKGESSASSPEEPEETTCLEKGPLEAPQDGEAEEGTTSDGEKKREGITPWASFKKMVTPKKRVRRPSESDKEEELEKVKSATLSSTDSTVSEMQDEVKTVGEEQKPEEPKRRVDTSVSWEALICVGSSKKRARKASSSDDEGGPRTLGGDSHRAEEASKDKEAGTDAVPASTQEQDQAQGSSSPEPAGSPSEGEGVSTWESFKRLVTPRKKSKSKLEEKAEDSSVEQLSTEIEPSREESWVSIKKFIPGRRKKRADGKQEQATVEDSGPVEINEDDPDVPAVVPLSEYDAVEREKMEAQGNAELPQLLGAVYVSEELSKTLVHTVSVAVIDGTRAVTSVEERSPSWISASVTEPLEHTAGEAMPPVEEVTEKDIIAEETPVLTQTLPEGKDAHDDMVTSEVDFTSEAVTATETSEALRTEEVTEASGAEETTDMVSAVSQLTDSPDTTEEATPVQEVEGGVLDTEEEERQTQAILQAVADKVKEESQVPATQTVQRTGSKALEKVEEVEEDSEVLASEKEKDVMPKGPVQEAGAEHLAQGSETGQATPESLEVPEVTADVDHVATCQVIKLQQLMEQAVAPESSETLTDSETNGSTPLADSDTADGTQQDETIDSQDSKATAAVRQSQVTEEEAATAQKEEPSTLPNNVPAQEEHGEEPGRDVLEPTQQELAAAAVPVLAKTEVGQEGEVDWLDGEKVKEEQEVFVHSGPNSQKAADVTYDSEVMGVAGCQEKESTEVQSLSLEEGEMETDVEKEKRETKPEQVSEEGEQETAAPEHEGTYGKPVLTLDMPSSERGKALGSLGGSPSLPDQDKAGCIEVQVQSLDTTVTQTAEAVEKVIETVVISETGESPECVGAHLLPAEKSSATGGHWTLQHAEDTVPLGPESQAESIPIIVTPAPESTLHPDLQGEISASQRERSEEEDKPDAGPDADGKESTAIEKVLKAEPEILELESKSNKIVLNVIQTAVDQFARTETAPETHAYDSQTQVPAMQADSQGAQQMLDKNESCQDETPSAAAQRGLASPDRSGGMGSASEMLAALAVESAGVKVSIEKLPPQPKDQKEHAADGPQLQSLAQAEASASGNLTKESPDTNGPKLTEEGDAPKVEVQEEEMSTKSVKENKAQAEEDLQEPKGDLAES
FLAG-tagged gravin-α (K1502/1505R), myristoylation-deficient (Q5QD51, form named): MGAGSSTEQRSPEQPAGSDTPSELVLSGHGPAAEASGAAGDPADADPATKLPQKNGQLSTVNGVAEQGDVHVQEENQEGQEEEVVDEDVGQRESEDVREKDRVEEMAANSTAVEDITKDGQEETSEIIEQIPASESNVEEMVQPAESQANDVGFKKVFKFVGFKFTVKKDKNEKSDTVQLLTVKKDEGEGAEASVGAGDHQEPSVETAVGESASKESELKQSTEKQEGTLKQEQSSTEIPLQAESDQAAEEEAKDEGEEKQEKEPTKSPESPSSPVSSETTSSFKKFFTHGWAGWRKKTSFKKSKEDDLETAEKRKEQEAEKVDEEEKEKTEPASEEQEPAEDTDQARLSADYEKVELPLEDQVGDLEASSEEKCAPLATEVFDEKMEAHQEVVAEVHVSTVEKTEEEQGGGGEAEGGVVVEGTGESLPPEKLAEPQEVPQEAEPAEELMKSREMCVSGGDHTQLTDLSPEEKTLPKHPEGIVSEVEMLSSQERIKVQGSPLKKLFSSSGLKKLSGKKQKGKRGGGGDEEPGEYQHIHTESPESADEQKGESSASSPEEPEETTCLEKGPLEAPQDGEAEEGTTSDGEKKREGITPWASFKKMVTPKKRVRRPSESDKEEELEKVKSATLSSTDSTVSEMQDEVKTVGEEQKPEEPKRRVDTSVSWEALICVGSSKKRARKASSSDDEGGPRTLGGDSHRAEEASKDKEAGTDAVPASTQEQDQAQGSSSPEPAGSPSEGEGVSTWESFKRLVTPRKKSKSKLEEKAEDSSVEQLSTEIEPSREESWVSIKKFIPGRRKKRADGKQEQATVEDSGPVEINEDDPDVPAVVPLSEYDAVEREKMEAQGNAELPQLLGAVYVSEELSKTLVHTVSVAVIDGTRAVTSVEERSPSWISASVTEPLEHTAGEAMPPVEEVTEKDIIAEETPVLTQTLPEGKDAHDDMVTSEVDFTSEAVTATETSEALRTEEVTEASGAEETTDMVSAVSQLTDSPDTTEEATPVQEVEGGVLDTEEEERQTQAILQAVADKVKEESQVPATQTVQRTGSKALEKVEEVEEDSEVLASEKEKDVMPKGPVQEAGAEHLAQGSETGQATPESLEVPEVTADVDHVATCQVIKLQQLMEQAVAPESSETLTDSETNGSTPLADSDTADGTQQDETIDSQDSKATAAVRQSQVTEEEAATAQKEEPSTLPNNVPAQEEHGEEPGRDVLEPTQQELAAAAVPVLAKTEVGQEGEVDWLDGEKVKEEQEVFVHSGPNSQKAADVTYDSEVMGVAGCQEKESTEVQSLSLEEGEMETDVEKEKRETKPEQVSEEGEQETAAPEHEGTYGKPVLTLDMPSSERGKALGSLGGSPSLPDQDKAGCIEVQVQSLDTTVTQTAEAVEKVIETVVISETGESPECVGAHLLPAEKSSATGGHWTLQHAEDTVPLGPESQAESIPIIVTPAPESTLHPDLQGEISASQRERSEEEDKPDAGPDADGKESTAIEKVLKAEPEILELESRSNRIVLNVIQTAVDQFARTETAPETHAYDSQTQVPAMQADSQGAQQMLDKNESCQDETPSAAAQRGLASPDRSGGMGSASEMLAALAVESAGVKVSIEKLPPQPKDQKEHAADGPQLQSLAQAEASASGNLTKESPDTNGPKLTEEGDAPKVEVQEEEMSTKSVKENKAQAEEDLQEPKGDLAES

| Binder | binding [1] | binding [2] | binding [3] | binding [4] |
| --- | --- | --- | --- | --- |
| Myc-tagged HDAC11 (enzyme, UniProt Q96DB2 1-347) MLHTTQLYQHVPETRWPIVYSPRYNITFMGLEKLHPFDAGKWGKVINFLKEEKLLSDSMLVEAREASEEDLLVVHTRRYLNELKWSFAVATITEIPPVIFLPNFLVQRKVLRPLRTQTGGTIMAGKLAVERGWAINVGGGFHHCSSDRGGGFCAYADITLAIKFLFERVEGISRATIIDLDAHQGNGHERDFMDDKRVYIMDVYNRHIYPGDRFAKQAIRRKVELEWGTEDDEYLDKVERNIKKSLQEHLPDVVVYNAGTDILEGDRLGGLSISPAGIVKRDELVFRMVRGRRVPILMVTSGGYQKRTARIIADSILNLFGLGLIGPESPSVSAQNSDTPLLPPAVP | binds | binds | – | – |
| caveolin-1 (Cav-1) (protein, UniProt P49817 1-178) MSGGKYVDSEGHLYTVPIREQGNIYKPNNKAMADEVTEKQVYDAHTKEIDLVNRDPKHLNDDVVKIDFEDVIAEPEGTHSFDGIWKASFTTFTVTKYWFYRLLSTIFGIPMALIWGIYFAILSFLHIWAVVPCIKSFLIEIQCISRVYSIYVHTFCDPLFEAIGKIFSNIRISTQKEI | – | – | no binding | binds |
| flotillin-2 (Flot-2) (protein, UniProt Q60634 1-428) MGNCHTVGPNEALVVSGGCCGSDYKQYVFGGWAWAWWCISDTQRISLEIMTLQPRCEDVETAEGVALTVTGVAQVKIMTEKELLAVACEQFLGKNVQDIKNVVLQTLEGHLRSILGTLTVEQIYQDRDQFAKLVREVAAPDVGRMGIEILSFTIKDVYDKVDYLSSLGKTQTAVVQRDADIGVAEAERDAGIREAECKKEMLDVKFMADTKIADSKRAFELQKSAFSEEVNIKTAEAQLAYELQGAREQQKIRQEEIEIEVVQRKKQIAVEAQEILRTDKELIATVRRPAEAEAHRIQQIAEGEKVKQVLLAQAEAEKIRKIGEAEAAVIEAMGKAEAERMKLKAEAYQKYGDAAKMALVLEALPQIAAKISAPLTKVDEIVVLSGDNSKVTSEVNRLLAELPASVHALTGVDLSKIPLIKNATGAQV | – | – | no binding | binds |

From publication PMC11060728
